# Source: PubChem BioAssay AID504832 (National Center for Advancing Translational Sciences (NCATS), 2011)
# The whole screen tested about 310,000 compounds, of which about 18,000 (5.8%) were called active. This list was built around the results that the source calls inconclusive (neither active nor inactive); the mix of calls is not that of the screen. Calls come from the whole dose curve; as a rule, active = well fitted inhibition curve with a large enough effect; inconclusive = small, poorly fitted or top-dose-only effect, or another doubt; inactive = no such curve, though single readings can be large or run the other way. No potency is given beside an inconclusive call; the fits are too rough.
# Test: Primary qHTS for delayed death inhibitors of the malarial parasite plastid, 48 hour incubation
# Conditions: P. falciparum luciferase growth in erythrocytes; series mostly up to 28.7 µM
# Summary of the method: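 Growth was read as firefly luciferase luminescence after a 48 h, 37 C, 5% CO2 exposure of compounds to reporter-bearing P. falciparum cultures (0.1% parasitemia, 2% hematocrit final) in Albumax-supplemented RPMI 1640.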
# % is set by controls: 0 for no effect and ±100 for the full control effect; potency is the fitted concentration of half-maximal effect; tags give direction and shape of the fitted curve.
Structure (SMILES),Potency,"activity change, negative = inhibition"
COc1ccccc1N=C1NC(=O)/C(=C/c2ccc(N(C)C)cc2)S1,active: 0.0928 µM,
CCN(CC)CCNC(=O)c1ccc(NC(=O)c2cccc(S(=O)(=O)Nc3ccc(C)cc3)c2)cc1,active: 0.37 µM,
CC(=O)Oc1ccc(C(=O)Nc2ccc(S(=O)(=O)NCC3CCCO3)cc2)cc1 (stereo not given),"inconclusive [inhibitor, partial curve]",
CC(O)CNc1nc2c(c(=O)n(C)c(=O)n2C)n1Cc1cccc(Br)c1 (stereo not given),inactive,
CCOc1ccc(N=NC2C(=O)N(C(N)=S)N=C2C)cc1 (stereo not given),"inconclusive [inhibitor, single point]",
CCCN(CCC)CCNC(=O)C1CCN(Cc2nc(-c3ccc(Cl)cc3)oc2C)CC1,active: 4.65 µM,
COc1cc(C(=O)Nc2ccc(C(=O)c3cccs3)cc2)cc(OC)c1OC,"inconclusive [inhibitor, single point]",
Cc1onc(-c2ccccc2)c1C(=O)Nc1ccc(S(=O)(=O)N2CCCCC2)cc1,"inconclusive [inhibitor, partial curve, poor fit]",
O=S(=O)(Nc1ccncc1)c1cc(Cl)c(Cl)cc1Cl,inactive,
CCCCC(=O)Nc1cccc(-c2cn3ccsc3n2)c1,inactive,
O=C(Nc1nc(-c2ccccn2)cs1)c1ccccc1-n1cnnn1,"inconclusive [inhibitor, full curve]",
COC(=O)[C@@]1(Cc2ccc(F)cc2)[C@H]2c3cc(C(=O)N4CCCC4)n(CCc4c[nH]c5ccc(OC)cc45)c3C[C@H]2CN1C(=O)c1ccccc1,"inconclusive [inhibitor, full curve]",
COC(=O)C1CCN(C(=O)CSc2nnc(-c3ccccc3)o2)CC1,"inconclusive [inhibitor, single point]",
CCOc1ccc(NCC(=O)Nc2ccc(Cl)cc2C)cc1,"inconclusive [inhibitor, partial curve]",
CCS(=O)(=O)N1Cc2ccccc2CC1C(=O)OCC(=O)N(C(C)C)C(C)C (stereo not given),"inconclusive [inhibitor, partial curve, poor fit]",
Cc1ccc(C2C(C(=O)c3sc(C)nc3C)=C(O)C(=O)N2CCN2CCOCC2)o1 (stereo not given),inactive,
COc1cc(CC(=O)N(C)CC(=O)Nc2ccc(Cl)c(C(F)(F)F)c2)cc(OC)c1OC,"inconclusive [inhibitor, single point]",
COP1(=O)C=C[C@H](N(Cc2ccccc2)S(=O)(=O)c2ccccc2[N+](=O)[O-])[C@@H](C)O1 (stereo not given in full),inactive,
COc1ccc(/C=C/C(=O)NNc2c(F)c(F)cc(F)c2F)cc1OC,"inconclusive [inhibitor, single point]",
C/C(=N\NC(=O)c1cccc2ccccc12)c1ccccn1,"inconclusive [inhibitor, full curve]",
COC(Cc1ccccc1N1CCCC1=O)OC,inactive,
CCOC(=O)N1CCN(S(=O)(=O)c2ccc(F)c(C(=O)Nc3ccc(C(C)C)cc3)c2)CC1,"inconclusive [inhibitor, single point]",
N/C(Cc1cccc2ccccc12)=N\OC(=O)c1ccc(Br)o1,"inconclusive [inhibitor, full curve]",
O=C(Cn1nc(CNc2ccc(Br)cc2)[n+]2c1CCCCC2)c1ccc([N+](=O)[O-])cc1,active: 2.08 µM,

Structure (SMILES),Potency,"activity change, negative = inhibition"
Cc1nn(C)c(C)c1CN(C)S(=O)(=O)c1ccc2ccccc2c1,active: 13.1 µM,
CCN(CC)Cc1ccccc1CNC(=O)c1cccc(S(=O)(=O)Nc2ccc3c(c2)OCO3)c1,active: 9.28 µM,
COc1cc(C(=O)NC(C)C2CC3CCC2C3)ccc1OC(F)F (stereo not given),"inconclusive [inhibitor, single point]",
CC(=O)N1N=C(c2c(O)n(C)c(=O)n(C)c2=O)CC1c1ccccc1 (stereo not given),active: 3.7 µM,
CCS(=O)(=O)N1Cc2ccccc2CC1C(=O)NCCc1ccccc1 (stereo not given),inactive,
CCOC(=O)CN(C(=O)COC(=O)C1(c2ccccc2)CC1)c1ccc(F)cc1,"inconclusive [inhibitor, partial curve, poor fit]",
Cc1ccc2cccc(S(=O)(=O)Nc3c(C)n(C)n(-c4ccccc4)c3=O)c2n1,"inconclusive [inhibitor, partial curve, poor fit]",
Cc1cc(C(F)(F)F)nc(SCC(=O)c2cccc([N+](=O)[O-])c2)n1,"inconclusive [inhibitor, partial curve]",
COc1ccc(NCc2ccc(OC)c(OC)c2)cc1,"inconclusive [inhibitor, partial curve, poor fit]",
CCNC(=O)CN(C1CCCCC1)S(C)(=O)=O,inactive,
Cc1ccccc1C(=O)NNC(=O)c1cc(N)cc([N+](=O)[O-])c1,inactive,
CC(Cc1ccc(Cl)cc1)N1CCC(n2nccc2NC(=O)C2CCCC2)CC1 (stereo not given),active: 10.4 µM,
O=C(Nc1cnn(Cc2ccccc2)c1)c1nc2ncccn2n1,inactive,
Clc1ccc(/C=N/Nc2nc(Cl)nc3ccccc23)cc1,"inconclusive [inhibitor, single point]",
COc1c(Br)cc(/C=N/n2c(-c3ccccc3)n[nH]c2=S)c(O)c1Br,inactive,
CC(C)CCN(N=O)[C@@H](Cc1ccccc1)CN(N=O)[C@@H](Cc1ccccc1)CN(C)N=O,"inconclusive [inhibitor, single point]",
COCc1cc(CN(C)C(=O)C2CCC(=O)N(Cc3cccc(OC)c3)C2)[nH]n1 (stereo not given),inactive,
Cc1ccc(C(=O)N[C@H](C(=O)Nc2cc(Cl)cc(Cl)c2)C(C)C)cc1,"inconclusive [inhibitor, full curve, poor fit]",
COc1ccccc1NS(=O)(=O)c1ccc2c(c1)CCN2C(=O)CCC(=O)O,,inactive: -19.9% [at 0.00184 µM]
O=C(CNC(c1ccccc1)c1ccccc1)Nc1ccccc1Br,"inconclusive [inhibitor, partial curve, poor fit]",
Cc1nc(N2CCN(c3ccccc3O)CC2)c2c(-c3ccccc3)csc2n1,active: 13.1 µM,
O=c1c2c(nc3cc(-c4ccc(F)cc4)[nH]n13)CCCC2,inactive,
COc1ccc(N(C)S(=O)(=O)c2cccc(C(=O)OCC(=O)NCc3ccccc3OC)c2)cc1,"inconclusive [inhibitor, single point]",
COc1ccc(COC(=O)Nc2cc3c(C(F)(F)F)nn(C)c3s2)cc1,"inconclusive [inhibitor, single point]",

Structure (SMILES),Potency,"activity change, negative = inhibition"
O=C(CCCN1C(=O)/C(=C\c2ccccc2)SC1=S)Nc1ccccc1O,inactive,
COc1ccccc1C(=O)NCCC(=O)NC1CCC(C)CC1 (stereo not given),inactive,
CCOC(=O)N1CCN(C(=O)Cc2ccc(-n3c(=S)[nH]c4ccccc4c3=O)cc2)CC1,"inconclusive [inhibitor, full curve, poor fit]",
O=C(COc1ccc2c(-c3ccccc3)cc(=O)oc2c1)Nc1ccc(CCO)cc1,inactive,
COc1ccc(NS(=O)(=O)c2ccc(NC(=O)c3ccc(N(C)S(C)(=O)=O)cc3)cc2)c(OC)c1,"inconclusive [inhibitor, partial curve]",
Cc1noc(C)c1COc1ccccc1C(=O)N1CCN(S(=O)(=O)c2cccc([N+](=O)[O-])c2)CC1,"inconclusive [inhibitor, partial curve]",
CNC[C@@H](C)NC[C@@H](Cc1ccccc1)NCCc1ccccc1,"inconclusive [inhibitor, full curve]",
CCOC(=O)c1ccc(Nc2ncccc2[N+](=O)[O-])cc1,inactive,
CN(C)S(=O)(=O)c1ccc(/C(O)=C2/C(=O)C(=O)N(Cc3cccnc3)C2c2ccncc2)cc1 (stereo not given),inactive,
CCOC(=O)CNC(=O)CSc1nnc(-c2ccco2)n1Cc1ccco1,inactive,
CC1CCCC(NC(=O)CCC(=O)NCc2ccccc2)C1C (stereo not given),inactive,
CCOc1ccc(N(CC(=O)Nc2c(C)n(C)n(-c3ccccc3)c2=O)S(=O)(=O)c2ccccc2)cc1,"inconclusive [inhibitor, partial curve, poor fit]",
CCCc1nc2c(c(=O)c3ccccc3n2C)c(=O)n1C1CCCCCC1,"inconclusive [inhibitor, partial curve]",
CCN(c1ccccc1)S(=O)(=O)c1ccc(C(=O)NCC(c2cccs2)N(C)C)cc1 (stereo not given),"inconclusive [inhibitor, single point]",
O=C(Nc1ccc(F)c(F)c1)C1CCCN1S(=O)(=O)c1ccc(F)cc1 (stereo not given),"inconclusive [inhibitor, full curve, poor fit]",
O=C(N/N=C/c1ccoc1)c1cc(O)cc(O)c1,inactive,
C[C@H](NC(=O)c1nc[nH]c1C(=O)N[C@@H](C)c1ccccc1)C(=O)OC(C)(C)C,"inconclusive [inhibitor, full curve, poor fit]",
CC(C)N(Cc1cnn(C)c1)Cc1nc(-c2ccc(Cl)cc2)no1,inactive,
COc1ccc(NC2=CC(=O)CC(c3ccccc3)C2)cc1 (stereo not given),"inconclusive [inhibitor, single point]",
O=C(Nc1ccc(C(=O)Oc2ccccc2)c(O)c1)c1ccccc1,"inconclusive [inhibitor, full curve, poor fit]",
COCCN(C(=O)c1ccco1)c1nnc(-c2ccc(OC)c(OC)c2)s1,inactive,
CCc1ccc(NC(=O)C2(c3ccccc3)CC2(Cl)Cl)cc1 (stereo not given),"inconclusive [inhibitor, full curve, poor fit]",
